Measured values published in the supplement of paper PMC5895741.

B1: MS2 coat protein; the commonest letter at each place (parent)
chain: MASNFTQFVLVDNGGTGDVTVAPSNFANGVAEWISSNSRSQAYKVTCSVRQSSAQNRKYTIKVEVPKVATQTVGGVELPVAAWRSYLNMELTIPIFATNSDCELIVKAMQGLLKDGNPIPSAIAANSGIY

Variants of: B1
Test: apparent fitness score (VLP assembly selection enrichment vs plasmid library) (log10 ratio); higher = better expression / assembly into well-formed VLPs
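Also: counts from Illumina MiSeq reads, cDNA of packaged RNA versus plasmid DNA taken before selection, each replicate independent from library construction onward, expression induced with 0.1% arabinose.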

Variant | apparent fitness score (log10)
MASNFTQFVLVDNGGTGDVTVAPSNFANGVAEWISSNSRSQAYKVTCSVRQSSAQNRKYTIKVEVPKVATQTVGGVELPVAAWRSYLNMELTIPIFATNSDCELIQKAMQGLLKDGNPIPSAIAANSGIY [V106Q] | < -4
MASNFTQFVLVDNGGTGDVTVAPSNFANGVAEWISSNSRSQAYKVTCSVRQSSAQNRKYTIKVEVPKVATQTVGGVELPVAAWRSYLNMELTIPIFATNSDCELIDKAMQGLLKDGNPIPSAIAANSGIY [V106D] | 0.307
MASNFTQFVLVDNGGTGDVTVAPSNFANGVAEWISSNSRSQAYKVTCSVRQSSAQNRKYTIKVEVPKVATQTVGGVELPVAAWRSYLNMELTIPIFATNSDCELINKAMQGLLKDGNPIPSAIAANSGIY [V106N] | < -4
MASNFTQFVLVDNGGTGDVTVAPSNFANGVAEWISSNSRSQAYKVTCSVRQSSAQNRKYTIKVEVPKVATQTVGGVELPVAAWRSYLNMELTIPIFATNSDCELIEKAMQGLLKDGNPIPSAIAANSGIY [V106E] | < -4
MASNFTQFVLVDNGGTGDVTVAPSNFANGVAEWISSNSRSQAYKVTCSVRQSSAQNRKYTIKVEVPKVATQTVGGVELPVAAWRSYLNMELTIPIFATNSDCELIFKAMQGLLKDGNPIPSAIAANSGIY [V106F] | -1.98
MASNFTQFVLVDNGGTGDVTVAPSNFANGVAEWISSNSRSQAYKVTCSVRQSSAQNRKYTIKVEVPKVATQTVGGVELPVAAWRSYLNMELTIPIFATNSDCELIRKAMQGLLKDGNPIPSAIAANSGIY [V106R] | < -4
MASNFTQFVLVDNGGTGDVTVAPSNFANGVAEWISSNSRSQAYKVTCSVRQSSAQNRKYTIKVEVPKVATQTVGGVELPVAAWRSYLNMELTIPIFATNSDCELIYKAMQGLLKDGNPIPSAIAANSGIY [V106Y] | < -4
MASNFTQFVLVDNGGTGDVTVAPSNFANGVAEWISSNSRSQAYKVTCSVRQSSAQNRKYTIKVEVPKVATQTVGGVELPVAAWRSYLNMELTIPIFATNSDCELILKAMQGLLKDGNPIPSAIAANSGIY [V106L] | -0.34
MASNFTQFVLVDNGGTGDVTVAPSNFANGVAEWISSNSRSQAYKVTCSVRQSSAQNRKYTIKVEVPKVATQTVGGVELPVAAWRSYLNMELTIPIFATNSDCELIIKAMQGLLKDGNPIPSAIAANSGIY [V106I] | 0.141
MASNFTQFVLVDNGGTGDVTVAPSNFANGVAEWISSNSRSQAYKVTCSVRQSSAQNRKYTIKVEVPKVATQTVGGVELPVAAWRSYLNMELTIPIFATNSDCELIGKAMQGLLKDGNPIPSAIAANSGIY [V106G] | -1.47
MASNFTQFVLVDNGGTGDVTVAPSNFANGVAEWISSNSRSQAYKVTCSVRQSSAQNRKYTIKVEVPKVATQTVGGVELPVAAWRSYLNMELTIPIFATNSDCELIHKAMQGLLKDGNPIPSAIAANSGIY [V106H] | < -4
MASNFTQFVLVDNGGTGDVTVAPSNFANGVAEWISSNSRSQAYKVTCSVRQSSAQNRKYTIKVEVPKVATQTVGGVELPVAAWRSYLNMELTIPIFATNSDCELIWKAMQGLLKDGNPIPSAIAANSGIY [V106W] | < -4
MASNFTQFVLVDNGGTGDVTVAPSNFANGVAEWISSNSRSQAYKVTCSVRQSSAQNRKYTIKVEVPKVATQTVGGVELPVAAWRSYLNMELTIPIFATNSDCELIAKAMQGLLKDGNPIPSAIAANSGIY [V106A] | < -4
MASNFTQFVLVDNGGTGDVTVAPSNFANGVAEWISSNSRSQAYKVTCSVRQSSAQNRKYTIKVEVPKVATQTVGGVELPVAAWRSYLNMELTIPIFATNSDCELISKAMQGLLKDGNPIPSAIAANSGIY [V106S] | < -4
MASNFTQFVLVDNGGTGDVTVAPSNFANGVAEWISSNSRSQAYKVTCSVRQSSAQNRKYTIKVEVPKVATQTVGGVELPVAAWRSYLNMELTIPIFATNSDCELIPKAMQGLLKDGNPIPSAIAANSGIY [V106P] | < -4
MASNFTQFVLVDNGGTGDVTVAPSNFANGVAEWISSNSRSQAYKVTCSVRQSSAQNRKYTIKVEVPKVATQTVGGVELPVAAWRSYLNMELTIPIFATNSDCELDVKAMQGLLKDGNPIPSAIAANSGIY [I105D] | < -4
MASNFTQFVLVDNGGTGDVTVAPSNFANGVAEWISSNSRSQAYKVTCSVRQSSAQNRKYTIKVEVPKVATQTVGGVELPVAAWRSYLNMELTIPIFATNSDCELSVKAMQGLLKDGNPIPSAIAANSGIY [I105S] | < -4
MASNFTQFVLVDNGGTGDVTVAPSNFANGVAEWISSNSRSQAYKVTCSVRQSSAQNRKYTIKVEVPKVATQTVGGVELPVAAWRSYLNMELTIPIFATNSDCELFVKAMQGLLKDGNPIPSAIAANSGIY [I105F] | -1
MASNFTQFVLVDNGGTGDVTVAPSNFANGVAEWISSNSRSQAYKVTCSVRQSSAQNRKYTIKVEVPKVATQTVGGVELPVAAWRSYLNMELTIPIFATNSDCELAVKAMQGLLKDGNPIPSAIAANSGIY [I105A] | < -4
MASNFTQFVLVDNGGTGDVTVAPSNFANGVAEWISSNSRSQAYKVTCSVRQSSAQNRKYTIKVEVPKVATQTVGGVELPVAAWRSYLNMELTIPIFATNSDCELGVKAMQGLLKDGNPIPSAIAANSGIY [I105G] | < -4
MASNFTQFVLVDNGGTGDVTVAPSNFANGVAEWISSNSRSQAYKVTCSVRQSSAQNRKYTIKVEVPKVATQTVGGVELPVAAWRSYLNMELTIPIFATNSDCELRVKAMQGLLKDGNPIPSAIAANSGIY [I105R] | < -4
MASNFTQFVLVDNGGTGDVTVAPSNFANGVAEWISSNSRSQAYKVTCSVRQSSAQNRKYTIKVEVPKVATQTVGGVELPVAAWRSYLNMELTIPIFATNSDCELTVKAMQGLLKDGNPIPSAIAANSGIY [I105T] | -0.0906

Variant | apparent fitness score (log10)
MASNFTQFVLVDNGGTGDVTVAPSNFANGVAEWISSNSRSQAYKVTCSVRQSSAQNRKYTIKVEVPKVATQTVGGVELPVAAWRSYLNMELTIPIFATNSDCELVVKAMQGLLKDGNPIPSAIAANSGIY [I105V] | 0.0038
MASNFTQFVLVDNGGTGDVTVAPSNFANGVAEWISSNSRSQAYKVTCSVRQSSAQNRKYTIKVEVPKVATQTVGGVELPVAAWRSYLNMELTIPIFATNSDCELPVKAMQGLLKDGNPIPSAIAANSGIY [I105P] | -0.392
MASNFTQFVLVDNGGTGDVTVAPSNFANGVAEWISSNSRSQAYKVTCSVRQSSAQNRKYTIKVEVPKVATQTVGGVELPVAAWRSYLNMELTIPIFATNSDCELYVKAMQGLLKDGNPIPSAIAANSGIY [I105Y] | < -4
MASNFTQFVLVDNGGTGDVTVAPSNFANGVAEWISSNSRSQAYKVTCSVRQSSAQNRKYTIKVEVPKVATQTVGGVELPVAAWRSYLNMELTIPIFATNSDCELCVKAMQGLLKDGNPIPSAIAANSGIY [I105C] | -0.522
MASNFTQFVLVDNGGTGDVTVAPSNFANGVAEWISSNSRSQAYKVTCSVRQSSAQNRKYTIKVEVPKVATQTVGGVELPVAAWRSYLNMELTIPIFATNSDCELWVKAMQGLLKDGNPIPSAIAANSGIY [I105W] | < -4
MASNFTQFVLVDNGGTGDVTVAPSNFANGVAEWISSNSRSQAYKVTCSVRQSSAQNRKYTIKVEVPKVATQTVGGVELPVAAWRSYLNMELTIPIFATNSDCELEVKAMQGLLKDGNPIPSAIAANSGIY [I105E] | < -4
MASNFTQFVLVDNGGTGDVTVAPSNFANGVAEWISSNSRSQAYKVTCSVRQSSAQNRKYTIKVEVPKVATQTVGGVELPVAAWRSYLNMELTIPIFATNSDCELLVKAMQGLLKDGNPIPSAIAANSGIY [I105L] | -0.0445
MASNFTQFVLVDNGGTGDVTVAPSNFANGVAEWISSNSRSQAYKVTCSVRQSSAQNRKYTIKVEVPKVATQTVGGVELPVAAWRSYLNMELTIPIFATNSDCELNVKAMQGLLKDGNPIPSAIAANSGIY [I105N] | -0.0599
MASNFTQFVLVDNGGTGDVTVAPSNFANGVAEWISSNSRSQAYKVTCSVRQSSAQNRKYTIKVEVPKVATQTVGGVELPVAAWRSYLNMELTIPIFATNSDCETIVKAMQGLLKDGNPIPSAIAANSGIY [L104T] | 0.0743
MASNFTQFVLVDNGGTGDVTVAPSNFANGVAEWISSNSRSQAYKVTCSVRQSSAQNRKYTIKVEVPKVATQTVGGVELPVAAWRSYLNMELTIPIFATNSDCEYIVKAMQGLLKDGNPIPSAIAANSGIY [L104Y] | 0.45
MASNFTQFVLVDNGGTGDVTVAPSNFANGVAEWISSNSRSQAYKVTCSVRQSSAQNRKYTIKVEVPKVATQTVGGVELPVAAWRSYLNMELTIPIFATNSDCEVIVKAMQGLLKDGNPIPSAIAANSGIY [L104V] | 0.749
MASNFTQFVLVDNGGTGDVTVAPSNFANGVAEWISSNSRSQAYKVTCSVRQSSAQNRKYTIKVEVPKVATQTVGGVELPVAAWRSYLNMELTIPIFATNSDCEWIVKAMQGLLKDGNPIPSAIAANSGIY [L104W] | 0.479
MASNFTQFVLVDNGGTGDVTVAPSNFANGVAEWISSNSRSQAYKVTCSVRQSSAQNRKYTIKVEVPKVATQTVGGVELPVAAWRSYLNMELTIPIFATNSDCELIVDAMQGLLKDGNPIPSAIAANSGIY [K107D] | < -4
MASNFTQFVLVDNGGTGDVTVAPSNFANGVAEWISSNSRSQAYKVTCSVRQSSAQNRKYTIKVEVPKVATQTVGGVELPVAAWRSYLNMELTIPIFATNSDCELIVNAMQGLLKDGNPIPSAIAANSGIY [K107N] | -0.0255
MASNFTQFVLVDNGGTGDVTVAPSNFANGVAEWISSNSRSQAYKVTCSVRQSSAQNRKYTIKVEVPKVATQTVGGVELPVAAWRSYLNMELTIPIFATNSDCELIVEAMQGLLKDGNPIPSAIAANSGIY [K107E] | -0.675
MASNFTQFVLVDNGGTGDVTVAPSNFANGVAEWISSNSRSQAYKVTCSVRQSSAQNRKYTIKVEVPKVATQTVGGVELPVAAWRSYLNMELTIPIFATNSDCELIVFAMQGLLKDGNPIPSAIAANSGIY [K107F] | -0.847
MASNFTQFVLVDNGGTGDVTVAPSNFANGVAEWISSNSRSQAYKVTCSVRQSSAQNRKYTIKVEVPKVATQTVGGVELPVAAWRSYLNMELTIPIFATNSDCELIVGAMQGLLKDGNPIPSAIAANSGIY [K107G] | < -4
MASNFTQFVLVDNGGTGDVTVAPSNFANGVAEWISSNSRSQAYKVTCSVRQSSAQNRKYTIKVEVPKVATQTVGGVELPVAAWRSYLNMELTIPIFATNSDCELIVMAMQGLLKDGNPIPSAIAANSGIY [K107M] | -0.0877
MASNFTQFVLVDNGGTGDVTVAPSNFANGVAEWISSNSRSQAYKVTCSVRQSSAQNRKYTIKVEVPKVATQTVGGVELPVAAWRSYLNMELTIPIFATNSDCELIVLAMQGLLKDGNPIPSAIAANSGIY [K107L] | -0.438
MASNFTQFVLVDNGGTGDVTVAPSNFANGVAEWISSNSRSQAYKVTCSVRQSSAQNRKYTIKVEVPKVATQTVGGVELPVAAWRSYLNMELTIPIFATNSDCELIVIAMQGLLKDGNPIPSAIAANSGIY [K107I] | < -4
MASNFTQFVLVDNGGTGDVTVAPSNFANGVAEWISSNSRSQAYKVTCSVRQSSAQNRKYTIKVEVPKVATQTVGGVELPVAAWRSYLNMELTIPIFATNSDCELIVHAMQGLLKDGNPIPSAIAANSGIY [K107H] | 0.0996
MASNFTQFVLVDNGGTGDVTVAPSNFANGVAEWISSNSRSQAYKVTCSVRQSSAQNRKYTIKVEVPKVATQTVGGVELPVAAWRSYLNMELTIPIFATNSDCELIVCAMQGLLKDGNPIPSAIAANSGIY [K107C] | < -4
